The values below come from a collection of fitness landscapes (doi:10.1038/s41467-024-54723-y).

Whole data set: some 18,000 sequences, median “TetR repression strength (sort-seq, GFP reporter)” near 0.23, cut for the highest 2% near 0.68. Some of the results follow.

This assay has as its target TetR (class B, Tn10) (UniProt P04483). Description: TetR repression strength (sort-seq, GFP reporter) (relative to tetO2 = 1); higher = stronger repression. Particulars: E. coli. The gist of the method: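 Three independent transformations of E. coli SIG10-MAX were made with a low-copy plasmid library randomizing eight operator positions between a constitutive promoter and sfGFP, with constitutive TetR. Following 5 h at 37 °C in LB plus 50 µg/mL chloramphenicol, 10^6 cells went through FACS into 13 fluorescence bins, and each bin was sequenced by Illumina. Repression strength was defined as the top bin index plus one minus the read-weighted mean bin, divided by the unaltered operator's value. Averages included only members reaching ≥30 reads in all replicates with a CV ≤0.5.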
Chain of UniProt P04483 (P04483 whole entry): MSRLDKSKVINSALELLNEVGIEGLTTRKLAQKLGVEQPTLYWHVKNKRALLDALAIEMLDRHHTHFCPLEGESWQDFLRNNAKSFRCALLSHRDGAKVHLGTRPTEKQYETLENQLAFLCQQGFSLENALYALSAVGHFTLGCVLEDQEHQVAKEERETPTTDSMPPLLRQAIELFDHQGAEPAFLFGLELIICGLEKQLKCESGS
As to TCCCGTTGAGTGGAGGAGA, the TetR repression strength was found to be 0.201.
With TCCCGTGGAGTCACGGAGA the figure was 0.0633; with TCCCACGGAGTGTTAGAGA, 0.317; with TCCCGCTCAGTGTCAGAGA, 0.244.
With TCCCGAGTAGTCTAGGAGA the figure was 0.142; with TCCCAACCAGTTAGTGAGA, 0.298; with TCCCAGTTAGTTACGGAGA, 0.149.
In turn, TCCCAGGGAGTCGTGGAGA had a TetR repression strength of 0.11.
With TCCCCTTTAGTGCGGGAGA the figure was 0.206; with TCCCGAGTAGTACTCGAGA, 0.0848; with TCCCAGTGAGTCAGGGAGA, 0.456.
The same measure for TCCCGGACAGTCATGGAGA: 0.192.
Sequence TCCCACTAAGTCGGGGAGA showed a TetR repression strength of 0.156.
The same measure for TCCCTTTGAGTTGCTGAGA: 0.319.
With TCCCCTTTAGTTAATGAGA the figure was 0.471; with TCCCGCTAAGTTTGGGAGA, 0.0197; with TCCCTAGCAGTGATCGAGA, 0.659.
As for TCCCACTGAGTTCTTGAGA, the TetR repression strength is 0.195.
With TCCCTCTGAGTTCATGAGA the figure was 0.243.
TCCCTGTGAGTCAACGAGA came in with a TetR repression strength of 0.19.
The sequence TCCCGATGAGTGGATGAGA gave a TetR repression strength of 0.174.
The sequence TCCCGGGGAGTTGCAGAGA yielded a TetR repression strength of 0.254.
Sequence TCCCGGCGAGTCAGTGAGA showed a TetR repression strength of 0.317.
With TCCCATTCAGTCGTTGAGA the figure was 0.4.
In turn, TCCCTTACAGTCGTTGAGA yielded a TetR repression strength of 0.329.
As to TCCCACTCAGTGAATGAGA, the TetR repression strength came out at 0.521.
For TCCCTTTTAGTCTCGGAGA, the TetR repression strength is 0.256.
As for TCCCGGGGAGTAGTGGAGA, the TetR repression strength was 0.229.
With TCCCTTGGAGTTTTGGAGA the figure was 0.222.
In turn, TCCCAAGTAGTAGGTGAGA gave a TetR repression strength of 0.0868.
With TCCCTGCAAGTCTAAGAGA the figure was 0.161.
For TCCCAGTGAGTAGGGGAGA, the TetR repression strength came to 0.202.
TCCCCCGGAGTGTCAGAGA showed a TetR repression strength of 0.171.
With TCCCGACCAGTTGACGAGA the figure was 0.109; with TCCCAGTGAGTCCCTGAGA, 0.154.
The same measure for TCCCTTCCAGTTTGGGAGA: 0.207; for TCCCGGGAAGTGGAAGAGA: 0.246; for TCCCCAGCAGTCGGTGAGA: 0.211.
The same measure for TCCCATGCAGTTTGTGAGA: 0; for TCCCCATTAGTGGTAGAGA: 0.0779.
As to TCCCAGGTAGTGCTAGAGA, the TetR repression strength is 0.21.
Sequence TCCCTCGAAGTGACGGAGA had a TetR repression strength of 0.417.
On to TCCCAGCGAGTTAGAGAGA, for which the TetR repression strength stood at 0.815.
With TCCCTGTGAGTCAAGGAGA the figure was 0.37.
The sequence TCCCCGTCAGTGGTTGAGA returned a TetR repression strength of 0.134.
The same measure for TCCCAGCCAGTAGGGGAGA: 0.152.
The same measure for TCCCAGACAGTGATAGAGA: 0.384; for TCCCTTTAAGTCATGGAGA: 0.0968.
The same measure for TCCCCTGGAGTGGTGGAGA: 0.0678; for TCCCTTGTAGTTAAAGAGA: 0.218.
TCCCGGTTAGTTTTGGAGA: the TetR repression strength is 0.543.
Consider TCCCGGTGAGTTTTGGAGA, for which the TetR repression strength was determined as 0.296.
The sequence TCCCATCCAGTGATAGAGA displayed a TetR repression strength of 0.626.
With TCCCTATAAGTCTGGGAGA the figure was 0.203.
With TCCCGGCAAGTTGTAGAGA the figure was 0.209; with TCCCGGATAGTGCTGGAGA, 0.447.
With TCCCAGGCAGTGGATGAGA the figure was 0.177; with TCCCATTAAGTAGGCGAGA, 0.297.
Turning to TCCCTTTTAGTATGCGAGA, the TetR repression strength came out at 0.292.
Sequence TCCCGGCGAGTGAAGGAGA had a TetR repression strength of 0.262.
The same measure for TCCCCAAGAGTCCGGGAGA: 0.205; for TCCCGTTGAGTGTTGGAGA: 1.1.
With TCCCATGTAGTCGTCGAGA the figure was 0.183; with TCCCATCCAGTTGTTGAGA, 0.37.
The same measure for TCCCTGCTAGTCGGAGAGA: 0.421; for TCCCATTCAGTCGGGGAGA: 0.598; for TCCCCATCAGTGTGTGAGA: 0.116.
On to TCCCTGTCAGTCATAGAGA, for which the TetR repression strength is 0.617.
Consider TCCCATTTAGTTTATGAGA, for which the TetR repression strength turned out to be 0.0199.
Consider TCCCGCGGAGTTCGCGAGA, for which the TetR repression strength stood at 0.117.
With TCCCGCTGAGTTCGGGAGA the figure was 0.202; with TCCCACCTAGTAGGCGAGA, 0.152.
With TCCCGCAAAGTTGTTGAGA the figure was 0.161; with TCCCGAAGAGTGAGCGAGA, 0.381.
Sequence TCCCCACGAGTCCATGAGA displayed a TetR repression strength of 0.442.
The same measure for TCCCTGAAAGTGTGCGAGA: 0.316; for TCCCCGCTAGTGAGCGAGA: 0.0751.
The same measure for TCCCTTCCAGTGCAGGAGA: 0.281; for TCCCTAACAGTACCAGAGA: 0.243.
The same measure for TCCCCATAAGTACAAGAGA: 0.446; for TCCCGAGCAGTACTCGAGA: 0.028; for TCCCCCAGAGTGCGAGAGA: 0.329.
TCCCGGACAGTCACTGAGA displayed a TetR repression strength of 0.203.
The same measure for TCCCAATGAGTCGAAGAGA: 0.29.
The same measure for TCCCATCTAGTGTAGGAGA: 0.398.
Sequence TCCCCTCAAGTTAGGGAGA registered a TetR repression strength of 0.304.
Take TCCCGTGTAGTGTGGGAGA: the TetR repression strength is 0.227.
With TCCCGCTGAGTAGGTGAGA the figure was 0.0602; with TCCCGCCCAGTAGATGAGA, 0.279.
The same measure for TCCCTTCTAGTCGATGAGA: 0.334; for TCCCAACAAGTCGCGGAGA: 0.0424.
With TCCCCGAAAGTATAAGAGA, the TetR repression strength amounted to 0.409.
The same measure for TCCCCGACAGTCTAGGAGA: 0.215.
In the case of TCCCCTACAGTTTTTGAGA, the TetR repression strength was found to be 0.505.
As to TCCCAGCCAGTGTGGGAGA, the TetR repression strength is 0.225.
With TCCCGGTGAGTGTAAGAGA the figure was 0.268.
The same measure for TCCCAAACAGTGGTGGAGA: 0.231.
TCCCGGAAAGTTCATGAGA: the TetR repression strength amounted to 0.258.
TCCCTGGTAGTTAGTGAGA had a TetR repression strength of 0.141.
The same measure for TCCCGTTGAGTAGGTGAGA: 0.0797; for TCCCTCGGAGTGAGCGAGA: 0.0259.
The same measure for TCCCCTTGAGTTTAAGAGA: 0.274.
